# In the supplement of paper PMC4166925:
# ± gives the standard deviation of the averaged measurements. Whole data set: some 33,000 sequences, median “E-score (dimensionless, -0.5 to 0.5)” near -0.046, cut for the highest 2% near 0.36. The list shows a part of the results.
# Tested on: T1, SpTbr T-box DNA-binding domain (GST fusion)
# T1 sequence: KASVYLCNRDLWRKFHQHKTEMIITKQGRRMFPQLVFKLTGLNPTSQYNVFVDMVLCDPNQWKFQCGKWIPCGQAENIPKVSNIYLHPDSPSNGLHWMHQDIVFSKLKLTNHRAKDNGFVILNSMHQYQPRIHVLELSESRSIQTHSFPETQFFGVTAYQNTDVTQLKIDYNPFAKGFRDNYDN
# Assay: PBM E-score of 8-mer (E-score (dimensionless, -0.5 to 0.5)); Tbr is Tbrain of the sea star Patiria miniata (Pm) or the sea urchin Strongylocentrotus purpuratus (Sp); higher = stronger binding preference; most listed sequences are background and not binding sites
# Conditions: the construct has about 5 more residues each side
# Experimental: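 Universal protein-binding microarray (Agilent AMADID 016060, 60-bp probes with a 35-bp variable region) incubated with 200 nM GST-fused Strongylocentrotus purpuratus Tbr T-box DNA-binding domain (residues 362-554) in PBS pH 7.5. Scored for every ungapped 8-mer (given with its reverse complement) as E-score (range -0.5 to 0.5; >0.45 counts as bound) and Z-score of median probe intensity. Two replicate arrays (datasets 1 and 2).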
# 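Note: protein at 200 nM in PBS on universal double-stranded arrays.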
row,Sequence,PBM E-score of 8-mer
1,AGGTCTTC,-0.142 ± 0.053
2,GATCTTTA,0.017 ± 0.026
3,GACCACCA,-0.13 ± 0.0047
4,GTGCCCCA,-0.0876 ± 0.0044
5,AATTTCTA,-0.212 ± 0.046
6,AAACCCGG,-0.22 ± 0.045
7,TCAGACAA,-0.253 ± 0.014
8,CAGATAAA,-0.0966 ± 0.014
9,GGGCGATA,0.0321 ± 0.073
10,AATATCGG,-0.0749 ± 0.008
11,GTTGCCAA,0.202 ± 0.029
12,CGGTCTGA,-0.177 ± 0.0019
13,AATCGCAG,0.0391 ± 0.046
14,ATTCTGGA,-0.3349 ± 0.00046
15,CGAGGAAC,-0.0172 ± 0.03
16,AGAAATGC,-0.0483 ± 0.011
17,ACTATTAA,0.00251 ± 0.021
18,AAGCAGCA,-0.179 ± 0.014
19,ATTAGTCA,-0.0645 ± 0.04
20,CAGTTGGC,0.0384 ± 0.018
21,ACGCGATA,0.274 ± 0.014
22,GGCCATTA,-0.201 ± 0.0053
23,CGTGTACC,-0.0881 ± 0.032
24,CACATACG,0.134 ± 0.011

row,Sequence,PBM E-score of 8-mer
1,CACCGTTA,0.273 ± 0.015
2,AGGCTAAA,-0.205 ± 0.065
3,GTCTATGA,-0.0394 ± 0.079
4,CCGGCAAG,-0.0522 ± 0.069
5,AAATATTG,0.156 ± 0.0072
6,AAGGATCC,-0.247 ± 0.041
7,AATGATTA,0.0437 ± 0.042
8,GGCGACAC,0.381 ± 0.0043
9,CGTCTCGA,-0.229 ± 0.039
10,AGTTCATC,-0.00549 ± 0.034
11,AAGGATGT,-0.131 ± 0.091
12,GGCGGGTA,-0.0721 ± 0.048
13,CAAAACAA,-0.0399 ± 0.06
14,GACATTCC,-0.184 ± 0.032
15,AGGCGCTA,0.41 ± 0.023
16,CCGCCCAC,0.0475 ± 0.039
17,CACTCATG,0.137 ± 0.025
18,ACGCACAG,-0.0734 ± 0.02
19,CTTGCACC,0.278 ± 0.04
20,AAGGGCTA,-0.285 ± 0.0039
21,CGAGGATC,0.0468 ± 0.025
22,GGGTGACC,-0.0352 ± 0.046
23,CCTGGGAG,0.0895 ± 0.0077
24,AACGTTAC,-0.0506 ± 0.056

row,Sequence,PBM E-score of 8-mer
1,AACTATAC,-0.0681 ± 0.053
2,GCGATGCA,-0.0366 ± 0.034
3,GAAGATCA,-0.112 ± 0.028
4,CGAACAGA,0.0582 ± 0.028
5,ACCGACAT,-0.042 ± 0.038
6,GTCGCGAA,0.372 ± 0.025
7,ACCAAACC,0.185 ± 0.077
8,TATCCGAA,-0.311 ± 0.035
9,GAGAGCCA,0.0114 ± 0.059
10,CCGGGTTC,-0.071 ± 0.057
11,GCCAGGTA,0.0145 ± 0.079
12,CCAGGCTC,-0.277 ± 0.038
13,AAGATCAC,0.145 ± 0.058
14,CGCGCTTA,0.288 ± 0.0086
15,CATTTACA,0.209 ± 0.071
16,CTAGTTTA,-0.132 ± 0.14
17,AGGACGAG,-0.148 ± 0.052
18,ACTCATAT,0.00736 ± 0.051
19,AAAGTGGA,-0.0933 ± 0.021
20,GAGAGGCC,-0.066 ± 0.075
21,AATTGTGT,0.132 ± 0.052
22,GGTTGATA,-0.0354 ± 0.00093
23,ACTTGACG,0.251 ± 0.012
24,ACCCTCTG,0.0161 ± 0.013

row,Sequence,PBM E-score of 8-mer
1,CTTTGCGA,0.136 ± 0.0052
2,AAGGCCTA,-0.0978 ± 0.02
3,CGTGTTAG,0.332 ± 0.015
4,GCATGTTA,-0.0634 ± 0.0088
5,GAAAGGTC,-0.102 ± 0.033
6,ACGACGTA,-0.107 ± 0.01
7,ATACGGTG,-0.0108 ± 0.036
8,AACTACCT,-0.102 ± 0.011
9,GCGCAACA,0.141 ± 0.021
10,CCGGTAAC,0.115 ± 0.081
11,ACGATGCC,-0.0471 ± 0.083
12,ATCAACAA,0.152 ± 0.048
13,CTAAAGCC,-0.181 ± 0.012
14,ATAAGTTG,-0.182 ± 0.065
15,AGGAAGTG,0.272 ± 0.0086
16,GTACGTGA,0.132 ± 0.017
17,ATGAAATG,-0.191 ± 0.033
18,GGCTGAAC,-0.313 ± 0.045
19,GCGTCTTA,-0.0272 ± 0.028
20,CCGACACC,0.438 ± 0.0068
21,CTGTTCAA,-0.127 ± 0.0074
22,CACGCTTC,0.3583 ± 0.0029
